These results are taken from the supplement of paper PMC11417369.

± gives the standard deviation of the averaged measurements. The list shows a part of the results.

In the assay the test system is PfAP2-G AP2 domain (GST-tagged). As to the kind of experiment: gcPBM binding intensity (ln(normalized median fluorescence intensity)); higher = stronger DNA binding. Summed up: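 Plasmodium falciparum DNA-binding domains carrying a GST tag were expressed in E. coli and applied for 1 h, at about 25 μg on average, to an Agilent 4 × 180k array. The array held primer-extended double-stranded 36-bp intergenic genomic probes together with negative controls, and binding took place in 1× PBS with 1% milk, 0.2 mg/ml BSA, 0.5% salmon testes DNA and 0.03% Triton X-100. An Alexa488 anti-GST antibody detected bound protein, and the array was scanned at 488 nm. Binding intensity is taken as the highest Masliner-normalised natural-log median intensity across replicate spots of either probe orientation.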
Turning to “CACATACCCATACAAACACACATTATATATATATAT [CACACA_site4965]”, the “gcPBM binding intensity (ln)” value is 10.2 ± 0.17.
Turning to “ATATCGTGTGCATTAACACACATTTATTTGAATAAA [CACACA_site7162]”, the “gcPBM binding intensity (ln)” value came to 10.1 ± 0.3.
On to “GATATATAAATAGATACACACATACATACATACATA [CACACA_site6260]”, for which the “gcPBM binding intensity (ln)” value is 10 ± 0.17.
For “CTTATGTTTTTTAAGTGTACATATTATACGTATTAT [XGTACX_site1176]”, the “gcPBM binding intensity (ln)” value worked out at 11.6 ± 0.95.
The same measure for “TAAATATATATAATTACACACTTTTCTATAATATGA [CACACA_site711]”: 9.8 ± 0.11; for “ACAAATAAAAATATTACACACACTATTCTAGTGATA [CACACA_site6812]”: 9.63 ± 0.17.
“GACAAATTATTGTGTACACAATATTATTATATATAC [CACACA_site6020]”: the “gcPBM binding intensity (ln)” value stood at 11.6 ± 0.89.
Regarding “TATAATACATTATATTGTACTATATTATAATAAATT [XGTACX_site5934]”, the “gcPBM binding intensity (ln)” value is 10.8 ± 0.51.
Take “TTAAGATATATAAAGAGTACACATAAGAGTAATGCT [XGTACX_site58]”: the “gcPBM binding intensity (ln)” value was determined as 11.4 ± 0.95.
As to “AACAGATATATATGTAGTACATGTTCTAGATATTTT [XGTACX_site1208]”, the “gcPBM binding intensity (ln)” value came out at 11.4 ± 0.84.
Regarding “AATAATTGTTAAAGGTGTACAATACGTATGTAAGAA [XGTACX_site1328]”, the “gcPBM binding intensity (ln)” value is 11.5 ± 0.95.
For the sequence “AATATAAACATAGATAGATAAATAAATAAATAAACA [GTGCAC_negctrl_site567]”, the “gcPBM binding intensity (ln)” value was found to be 9.63 ± 0.18.
Consider “CAAGCACCCAGACACACACACACACCCACACCCACA [CACACA_site369]”, for which the “gcPBM binding intensity (ln)” value is 10.2 ± 0.37.
With “ATAAAAATAACATATAAACACACATATATATATATA [CACACA_site9267]”, the “gcPBM binding intensity (ln)” value was found to be 9.97 ± 0.35.
The same measure for “AGTCATTAAATATAATGTACATGGAAAAACAGCTGA [XGTACX_site7944]”: 11.1 ± 0.81; for “GGAATATTTATACATACACACATATATTTATTTATA [CACACA_site6883]”: 9.955 ± 0.049; for “TATCATTTTGTATATAGTACATATATAAAATCGTTA [XGTACX_site3875]”: 10.8 ± 0.66.
Turning to “AAAAAAAATAAAAATAAAAATAAAAATAAAAATAAA [GTGCAC_negctrl_site437]”, the “gcPBM binding intensity (ln)” value amounted to 9.46 ± 0.26.
With “ATGTAGACATAATGGGGTACAAAAAAAAAAAAAAAA [XGTACX_site881]”, the “gcPBM binding intensity (ln)” value turned out to be 11.6 ± 1.3.
As to TAAACATATAGAGGGGTGCAAAGAATTGTAAAATTT, the “gcPBM binding intensity (ln)” value worked out at 10.3 ± 0.37.
The same measure for “TATATATTGATATGCACACCTATGTATTGATGTATA [CACACA_site1073]”: 10 ± 0.3.
On to “GGTCTTTTCAACACACGTACATAAAAATATTATACA [XGTACX_site5360]”, for which the “gcPBM binding intensity (ln)” value came to 11.5 ± 0.94.
On to “TATTTTTTTCTTACTACACACATATAGATGCTTTCC [CACACA_site7825]”, for which the “gcPBM binding intensity (ln)” value was 9.965 ± 0.035.
The same measure for “AATAATAATAAATATACACACATCATACAATTAACA [CACACA_site3679]”: 10.07 ± 0.092.
Consider “ATATTATTATAATATACATATATATATATAATATAT [CACACA_negctrl_site480]”, for which the “gcPBM binding intensity (ln)” value is 9.81 ± 0.18.
For “ACATAAATTTAATACACACACAAAGAAAAAAAAAAA [CACACA_site4088]”, the “gcPBM binding intensity (ln)” value amounted to 10.1 ± 0.19.
The same measure for “TAATATAATATATATACACACAAGAAATACAAAACG [CACACA_site1378]”: 10.3 ± 0.19.
With “TATATATATAATTAAAGTACATATAACCACAAAAAT [XGTACX_site7289]”, the “gcPBM binding intensity (ln)” value was determined as 11.3 ± 0.79.
The same measure for “TATATCATTATATAAACACACAATATGTTTTTTATA [CACACA_site3781]”: 9.62 ± 0.042; for “TTTTTTTCTTTATTAGCACACATAATATTATATATG [CACACA_site8841]”: 10.13 ± 0.092.
Turning to “AACATTTGATAAGATACACACACAAGGAAAAAAATA [CACACA_site8004]”, the “gcPBM binding intensity (ln)” value stood at 10.4 ± 0.18.
For “TAGAATAATCTATAAACACACAAACACAACAAAAGA [CACACA_site7861]”, the “gcPBM binding intensity (ln)” value came to 10.3 ± 0.32.
Turning to “ACCTAAAAGGTATAATATATAAATAAAAAAAAAAAT [CACACA_negctrl_site134]”, the “gcPBM binding intensity (ln)” value was determined as 9.77 ± 0.057.
The same measure for “TATTAATCTAATTCATAAAAAATGATCTATTTTGTT [CACACA_negctrl_site1035]”: 9.535 ± 0.021.
With “AAAATGAACAGACACACACACATATTTATATTTATA [CACACA_site7182]”, the “gcPBM binding intensity (ln)” value was found to be 9.98 ± 0.17.
For the sequence “CATATACATAAACACACACACACATAAATAAATATA [CACACA_site4864]”, the “gcPBM binding intensity (ln)” value worked out at 10.1 ± 0.33.
The figure for “AGATATTTTATAATTACACACATGAGGTTATTTGAA [CACACA_site1999]” is 9.7 ± 0.11; for “TTATAAAAATAATATCGTACAAATGACATAGATGAA [XGTACX_site2570]” it is 10.9 ± 0.47; for “CAGCTCTTAAAAATTACACACATATACTCATATATA [CACACA_site5757]” it is 9.96 ± 0.15.
As for GAAAAGCAGATAAATGTGCACATATATGTTTGTATA, the “gcPBM binding intensity (ln)” value came to 10.26 ± 0.099.
For the sequence “TATAGGTATATATAAGTGCAATATATATGTATATAC [GTGCAC_site9427]”, the “gcPBM binding intensity (ln)” value came to 10.1 ± 0.16.
The same measure for “TATTATTTTTTAAATTGTACAATAAATTATAAAAGG [XGTACX_site1162]”: 11 ± 0.6; for “ACATAAAATTGTTAAAAAATTGTATAAATAATACAT [XGTACX_negctrl_site557]”: 9.85 ± 0.085.
As for “GTATATATTCATATGGAAAATAAAGGAGAAAACAAG [TGCATGCA_negctrl_site220]”, the “gcPBM binding intensity (ln)” value was 10.4 ± 0.2.
The same measure for “ATGTATGTATAATATACACACTCACAAGCATTCAAA [CACACA_site4306]”: 10.05 ± 0.071; for “TTTGTTTTTTCTTTTTGTACATATACAAGATACGTA [XGTACX_site2309]”: 11 ± 0.58.
In the case of “TTTTGTAATTCTCTTCATATAATTTATATATATATA [CACACA_negctrl_site1825]”, the “gcPBM binding intensity (ln)” value was 9.98 ± 0.35.
Take “GTGTTTTTTTTAGATTGTACATATATATATATATAT [XGTACX_site4562]”: the “gcPBM binding intensity (ln)” value is 11.1 ± 0.7.
The same measure for “ACCCAACATATGTGTACACAGAAAATAAATATAATA [CACACA_site5901]”: 11.6 ± 0.94; for “TAAACAACTTATAAATGTACACATATTTTAATTACC [XGTACX_site5409]”: 11.5 ± 0.8.
The figure for “ATATATATACATACATACCTATGTATATGTGTAATT [GTGCAC_negctrl_site50]” is 9.73 ± 0.13.
On to “ATGGTAGTGATTAAAAGTACACGTAATTGTAAAAAT [XGTACX_site387]”, for which the “gcPBM binding intensity (ln)” value was found to be 11.7 ± 0.79.
For the sequence “TCATAGTCTTAATGACTACACACCTAACTATGCATG [CACACA_site1839]”, the “gcPBM binding intensity (ln)” value is 9.93 ± 0.042.
In the case of “AATAAAAACTAAACATGTACGCACATATATATATAT [XGTACX_site8096]”, the “gcPBM binding intensity (ln)” value was 11.5 ± 0.97.
For “TAAGTGCATGAGATATGTACATATATAAAATATATA [XGTACX_site3294]”, the “gcPBM binding intensity (ln)” value was 11.1 ± 0.67.
For the sequence “TAAAAAAAAAAAAATACACACACACCGATATATATA [CACACA_site8498]”, the “gcPBM binding intensity (ln)” value was found to be 9.86 ± 0.11.
As for “ATTTGTTACACTAAATGTACATACATACATATATAT [XGTACX_site6175]”, the “gcPBM binding intensity (ln)” value worked out at 11 ± 0.57.
